Drawing on paper PMC12136788, this text covers binding signal for 22 molecules.

Sequences and labels used below:
T1: UNK ZnF1-3 (human, UniProt Q9C0B0 31-174)
T1 sequence: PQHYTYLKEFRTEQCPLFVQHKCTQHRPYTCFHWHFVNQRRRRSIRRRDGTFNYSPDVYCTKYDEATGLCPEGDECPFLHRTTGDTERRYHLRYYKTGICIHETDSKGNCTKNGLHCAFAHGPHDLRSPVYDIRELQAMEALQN

B1: chr1:58468927:58468928:-_ENSMUSG00000026034_ENSMUST00000148330|mus_mus|mus_mus_mus_hu_False|18_58 (ssRNA)
RNA: GGGAGUUCUACAGUCCGACGAUCAAUUACUGAAAAAGAUGUUCAUUACCUUAGCUAUGUACUUAAUGAACCAAAUUAUCUAAAAAAAAUAAACAUGGCAAUAUAAAAAUGUUAAGAAAAUAACUUACUGUACAAAAUAACUUACAACAGAGGAUUGAGCAUCA
B2: chr10:85910540:85910541:+_ENSG00000165678_ENST00000372134|perfect_dup|motif|central (ssRNA)
RNA: GGGAGUUCUACAGUCCGACGAUCUUCUGCACGUUUGAUUACUUUCUGAGUAUCAUACAGAAGGAACAUGCUGAAAAGAACGGAUCCACCAUACAUUGCCACUGAGUACAGAGUGGCACCAGCCACAGAGGUAGGGGGAAGAAACAACAGAGGAUUGAGCAUCA
B3: 37302204_37304280_796_CDS_ENSG00000147905_ENST00000336755|human|control|control (ssRNA)
RNA: GGGAGUUCUACAGUCCGACGAUCACCACGUUUGUCACAAUUUCUACAGAUAAUGUUUUUGUUGGCUGAAUAGUACCGCUGGGUCCAUCUUCCAGGUGUUCGGUUAUUAGCUAUCUGGGCCUCAAUGUCUUUGUCACUGAUGGACAACAGAGGAUUGAGCAUCA
B4: chr17:74699132:74699133:-_ENSMUSG00000024067_ENSMUST00000112571|perfect_dup|motif|central (ssRNA)
RNA: GGGAGUUCUACAGUCCGACGAUCCCCAAGAAAUCAAUUUCGAUCUUCAAACUGCGCCUUGUUUUUUAAAAGAUAAGAUGCGGGGAACUCGAUGGGAUUUGGUGGUCUUUCCUUGGCAAGCACAGCAAGUCCCUGUAAUAAGAUCAACAGAGGAUUGAGCAUCA
B5: 7509219_7509339_2688_CDS_ENSMUSG00000031161_ENSMUST00000115642|mouse|control|control (ssRNA)
RNA: GGGAGUUCUACAGUCCGACGAUCAUGGACUUGGAUGACCUCACUGAUUGAAACCAGGGCUCCUGACUGUGGCGGUCGCAGCAAAGUAAGCUGGGGUGGUGGGUCUCCAAGGAGGGAAUGGGUGCAGGCAGCCAUAGACUCAGACAACAGAGGAUUGAGCAUCA
B6: chr10:18963012:18963013:+_ENSG00000165997_ENST00000377275|hu_mus|FALSE|FALSE (ssRNA)
RNA: GGGAGUUCUACAGUCCGACGAUCCCCUUCUCCUGUGAGCGCACAGCACGACUGGAUGUGCCACGGGUGGUCCUUGAUUGAACUUAGGGUGAGGUAUUUGGAGAUUUCAGCUGCUGUCAUGCACCCUUUCAUAUCCUGUUUAUUCAACAGAGGAUUGAGCAUCA
B7: chr1:157130520:157130521:-_ENSMUSG00000026469_ENSMUST00000027741|mus_mus|FALSE|FALSE (ssRNA)
RNA: GGGAGUUCUACAGUCCGACGAUCCGCGUUGAGGGGGGCCACAGAGAUGUCCCGCACGGCUCGGAAUUCACCACAGUUAUUUAGAUGCUCGUUCUCCAGACGGAAGAAGUUCCACACAAAUCGCCGGAAAACCUCAAGGGGGGCCAACAGAGGAUUGAGCAUCA
B8: chr1:231410971:231410972:+_ENSG00000116906_ENST00000366647|hu_hu|FALSE|FALSE (ssRNA)
RNA: GGGAGUUCUACAGUCCGACGAUCCAAAAGGUACUUGCAAAUUAUCUGAUAGCUUUCCACAAAAGGUUUAAAGAGUCCUACUAAAAAUUCUAACACAGUAUUUCCUUUCUCUGUAACUAGGAUGUCUUUCGUAGUCACUUGUAUCAACAGAGGAUUGAGCAUCA
B9: chr3:3214544:3214545:-_ENSG00000113851_ENST00000231948|hu_mus|FALSE|FALSE (ssRNA)
RNA: GGGAGUUCUACAGUCCGACGAUCCUUGAACCGCUGCCUUCCAAUUGCUUUCACUUUCACUACUUCAAUUCCAAACUCCUGCUCUUCUCGAUAGGCAUAGAUCUCUGCUGUUGUCCCAAACUGUGCUUCCCUUUCUUGCACAUUCAACAGAGGAUUGAGCAUCA
B10: chr12:48362563:48362564:+_ENSG00000134291_ENST00000256686|hu_hu|hu_hu_hu_mus_False|18_48 (ssRNA)
RNA: GGGAGUUCUACAGUCCGACGAUCUCCGUCAAGCCCUUCGAUAGACCCUUGCGGGGGAAACUGUAAUCACUUUGUAUGGGGAAGGAAAAAAAAAGCCAAAAACUUUCCAAAAAGCGGUUCAAAAAGCAGGCGGGAGGGGGAGGUCAACAGAGGAUUGAGCAUCA
B11: chr1:51737530:51737531:+_ENSG00000123091_ENST00000242719|perfect_dup|motif|central (ssRNA)
RNA: GGGAGUUCUACAGUCCGACGAUCACUGGUUUUCAAGCAUAGAGCCAGCCCCAACGAUAAUAAUACACUAUUUAAAAAGACCGGAGGCAAUGAAUUCCAUUUCCAAUGGAAAAAAAGAACUGUGCAAACAAGCUUAAAACUACUCAACAGAGGAUUGAGCAUCA
B12: chr7:108137184:108137185:-_ENSG00000135241_ENST00000257694|hu_hu|FALSE|FALSE (ssRNA)
RNA: GGGAGUUCUACAGUCCGACGAUCUCGAUAAAGUUCCUCACAUUCAUCCAAGGGCAUAUGAAACAACCCCAACAUGAAAGCUAAUAUGGCACCUGUGCUUACACCACAAAUGUAAUCAAAGAGCUGAUGAACUGGCUUCUGAGUCAACAGAGGAUUGAGCAUCA
B13: 180423776_180423896_799_CDS_ENSMUSG00000038914_ENSMUST00000103055|mouse|control|control (ssRNA)
RNA: GGGAGUUCUACAGUCCGACGAUCAGAAUCUUCCUCUCUGCGCUUCUUCCUCAGGCGAUUCUGACUGCCUCUCAGGGACCUCUCCACAGGUUCUUGCUCUCGCUUUCUCCGAAGGCGGUUCUGAAGUUCCUUCAACGUAAGGCCCAACAGAGGAUUGAGCAUCA
B14: chr17:56167648:56167649:+_ENSG00000264364_ENST00000579991|hu_hu|FALSE|FALSE (ssRNA)
RNA: GGGAGUUCUACAGUCCGACGAUCGAUAUCCCCAGAGGCUUUUAGCAUAAAAGCCCACUUAGAACUAACUGUGCCCCCUACCUACCCAUACACCCUAGAGAUUCCACACUGUCCUGCCCCCUCCCUCCCUUCUACCCCAAACCCCAACAGAGGAUUGAGCAUCA
B15: chr7:65705844:65705845:+_ENSG00000169902_ENST00000304842|hu_mus|hu_hu_hu_mus_False|28_68 (ssRNA)
RNA: GGGAGUUCUACAGUCCGACGAUCAAACGGAUCUUUGUUACAUAAAUAAGGUGCCGGCUCCCCAUGUUUAACGAUAACCUCCAGAAGGAAGGCUUGCAUGGCAGAAUCCAGCACUUCAUCUGUGACACCCGCCUCAUCCAAGCGCAACAGAGGAUUGAGCAUCA
B16: 71693611_71693731_815_CDS_ENSG00000132463_ENST00000545193|human|control|control (ssRNA)
RNA: GGGAGUUCUACAGUCCGACGAUCCUCAUUUACUUCAUGUUCUUCAAAGACCAUUUCUGGCUCAGUUAUAUACUUAGCAGUAGGAAAAGAUGCGAUUUUCUUUCCCUUAUAAGAACCGACAUGUGUUCGAACUUCAUUCCUUCUCAACAGAGGAUUGAGCAUCA
B17: chr4:131761308:131761309:-_ENSMUSG00000040025_ENSMUST00000102570|mus_hu|motif|central (ssRNA)
RNA: GGGAGUUCUACAGUCCGACGAUCAGCUGACUGUCCAUCAAUCAUGGCUCCACCUAAGGAGCUAGGUGCAUAAGCAUAAUUGCGGCGGUAUCCAGAGCUCUGAGUAGACUGUCCCUGAGAACUGUUAUUUCCCCAUGCUGAGAACAACAGAGGAUUGAGCAUCA
B18: chr8:92086081:92086082:+_ENSG00000155100_ENST00000285420|hu_hu|motif|central (ssRNA)
RNA: GGGAGUUCUACAGUCCGACGAUCUAUCCGAGGUGGCUGAUUCUCAAGCACCAAGUUUGAAAUGUUAACAGCAACAGAAUCGGUCUUAUUCUCCUUAGUAGUCAGCUUCAAUUGCUCCAGUUCCUCUCUAUGUUUCUGUUCCAUCAACAGAGGAUUGAGCAUCA
B19: chr16:30615004:30615005:-_ENSG00000156853_ENST00000287461|hu_hu|FALSE|FALSE (ssRNA)
RNA: GGGAGUUCUACAGUCCGACGAUCUGCUACUUAACCUGAAAACUUGGGGGCAAAGUGGUUGUGAUUAUCUGAAGGGCUGCUAUGUAGAUGAAGUAUUAAACAUGUCGUAGGCAAGGUUUAGAGGAGAAUGUGGUACUUAACCUUCAACAGAGGAUUGAGCAUCA
B20: chr7:140404665:140404666:+_ENSG00000090266_ENST00000247866|hu_hu|hu_hu_hu_mus_False|78_88 (ssRNA)
RNA: GGGAGUUCUACAGUCCGACGAUCUGCUCCUACUCGUCCAGAGAGUUUACACCUUCAGUCUUCAUCAUCAGGAGGGAUUCCCAGUUCUUCAUCUGUCCACUGUGAAGGAUCUGGAUAUGAAAAGUGACCCAGCACAGCAUCCGACAACAGAGGAUUGAGCAUCA
B21: chr1:60041781:60041782:+_ENSMUSG00000041040_ENSMUST00000036540|mus_hu|mus_mus_mus_hu_False|38_88 (ssRNA)
RNA: GGGAGUUCUACAGUCCGACGAUCAAGUUUACAAUAGUAAAGUAAAUCAAAUUUAGUCAAAUUUUCUUUUAUUUUCCUUCACAAAAGAAAAUCUUUAGAUCUCAGUUCUAGUCUUGGACAUAGUGAAAGCUAUAAAUUCUGACUCAACAGAGGAUUGAGCAUCA
B22: chr3:119450855:119450856:-_ENSMUSG00000028134_ENSMUST00000029780|mus_hu|mus_mus_mus_hu_False|8_78 (ssRNA)
RNA: GGGAGUUCUACAGUCCGACGAUCUGUGGUGCCACUAAGAGGAGUAUUUGCUGUCUGGACCGCUGUCACAGCUUGAAGAACUGCCUGAGCACGUUGGUUUAAUGUAUUAUCUGUCUUUAGUUCUUUGUGAUUGGAGUACUGGAUCAACAGAGGAUUGAGCAUCA

The other results are listed elsewhere or left out.

In the test the target is T1, UNK ZnF1-3. Nature of the test: nsRBNS (natural sequence RNA bind-n-seq); RBNS binding buffer (assumed for nsRBNS): 25 mM Tris pH 7.5, 150 mM KCl, 3 mM MgCl2, 0.01% Triton X-100, 500 ug/ml BSA, 20 U/ml SUPERase-In, 4 C; UNK is unkempt and MSI1 is Musashi-1; names of the RNAs are library labels; protein concentration not given here; high values mean tight binding.
The molecule B1 returned a binding signal of 0.613 enrichment R. The molecule B2 gave a binding signal of 1.57 enrichment R.

With B3, the binding signal stood at 0.593 enrichment R. B4 had a binding signal of 0.979 enrichment R.

The molecule B5 had a binding signal of 1.56 enrichment R. As to B6, the binding signal was 0.658 enrichment R. Regarding B7, the binding signal is 1.4 enrichment R. To B8 belongs 0.638 enrichment R.

With B9, the binding signal stood at 0.543 enrichment R. As for B10, the binding signal came to 2.27 enrichment R.

B11: the binding signal was 1.38 enrichment R. Under B12 stands 1.11 enrichment R; under B13, 0.563 enrichment R.

The molecule B14 came in with a binding signal of 2.77 enrichment R. Molecule B15 came in with a binding signal of 0.275 enrichment R.

For B16, the binding signal was found to be 0.583 enrichment R. To B17 belongs 1.07 enrichment R; to B18, 1.13 enrichment R. Under B19 stands 2 enrichment R; under B20, 1.19 enrichment R; under B21, 0.4 enrichment R.

The molecule B22 displayed a binding signal of 0.875 enrichment R.
